# The other results are listed elsewhere or left out. Sequences were assembled here from the parent chain. Inactive controls read about 0.05.
# B1: TEV protease; numbered along this chain (parent)
# chain: MGESLFKGPRDYNPISSSICHLTNESDGHTTSLYGIGFGPFIITNKHLFRRNNGTLVVQSLHGVFKVKDTTTLQQHLVDGRDMIIIRMPKDFPPFPQKLKFREPQREERICLVTTNFQTKSMSSMVSDTSCTFPSGDGIFWKHWIQTKDGQCGSPLVSTRDGFIVGIHSASNFTNTNNYFTSVPKNFMELLTNQEAQQWVSGWRLNADSVLWGGHKVFMVKPEEPFQPVKEATQL
# Variants of: B1
# Test: raw area under fraction-flipped curve 0-4 h after induction (AUC4h, not background-subtracted), DNA-recorder readout of cleavage of the substrate (dimensionless); higher = more cleavage of the substrate by the protease variant
# Conditions: temperature: 34 °C; time window: 0-4 h after rhamnose induction
# Procedure: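 In vivo DNA recorder in E. coli TOP10(DE3) ΔrhaA at 34 °C. Each TEVp single-site mutant (parent TEVp 0) is paired with a single-site variant of the 7-mer TEVs (canonical ENLYFQ|S). The substrate sits between flexible linkers in a Bxb1-sfGFP-TEVs-SsrA fusion, so cleavage stabilises Bxb1 and speeds flipping of a recombination array, read by NGS. The value is the raw area under the fraction-flipped curve over 0-4 h after rhamnose induction (AUC4h), with ≥20 reads per time point. It is not background-subtracted; inactive controls average about 0.047.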
# 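Note: Bxb1 expression induced with 0.2% (w/v) L-rhamnose at OD600 near 0.5, cultures sampled hourly, flipped fraction per protease–substrate barcode pair counted by paired-end Illumina sequencing.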
Variant,area with substrate ENLYFQA,area with substrate ENLYFQC,area with substrate ENLYFQE,area with substrate ENLYFQF,area with substrate ENLYFQG,area with substrate ENLYFQI,area with substrate ENLYFQK,area with substrate ENLYFQL,area with substrate ENLYFQM,area with substrate ENLYFQN,area with substrate ENLYFQP,area with substrate ENLYFQR,area with substrate ENLYFQS,area with substrate ENLYFQT,area with substrate ENLYFQW,area with substrate ENLYFQH,area with substrate ENLYFQQ,area with substrate ENLYFQV,area with substrate ENLYFQY,area with substrate ENLYFQD
MGESLFKGPRDYNPISSSICHLTNESDGHTTSLYGIGFGPFIITNKHLFRMNNGTLVVQSLHGVFKVKDTTTLQQHLVDGRDMIIIRMPKDFPPFPQKLKFREPQREERICLVTTNFQTKSMSSMVSDTSCTFPSGDGIFWKHWIQTKDGQCGSPLVSTRDGFIVGIHSASNFTNTNNYFTSVPKNFMELLTNQEAQQWVSGWRLNADSVLWGGHKVFMVKPEEPFQPVKEATQL [R51M],0.0876,0.099,0.0679,0.0828,0.124,0.0582,0.0679,0.0323,0.103,0.0724,0.0769,0.0526,0.112,0.0632,0.0647,,,,,
MGESLFKGPRDYNPISSSICHLTNESDGHTTSLYGIGFGAFIITNKHLFRRNNGTLVVQSLHGVFKVKDTTTLQQHLVDGRDMIIIRMPKDFPPFPQKLKFREPQREERICLVTTNFQTKSMSSMVSDTSCTFPSGDGIFWKHWIQTKDGQCGSPLVSTRDGFIVGIHSASNFTNTNNYFTSVPKNFMELLTNQEAQQWVSGWRLNADSVLWGGHKVFMVKPEEPFQPVKEATQL [P40A],0.0901,0.118,,,0.11,0.0714,0.0578,0.0516,0.0962,0.0766,,0.0497,0.108,0.0626,0.0807,0.0808,0.0658,0.058,0.0815,
MGESLFKGPRDYNPISSSICHLTNESDGHTTSLYGIGFGPFIITNKHLFRRNNGTLVVQSLHGVFKVKDTTTLQQHLVDGRDMIIIRMPKDFPPFPQKLKFREPQREERICLVTTNFQTKSMSSMVSDTSCTFPSGDGIFWKHWIQTKDGQCGSPLVSTRDGFIVGIHSASNFTNTNNYFTSVPKNFMELLTNQEAQQWVSGWRLNADSVLWGGHKNFMVKPEEPFQPVKEATQL [V217N],0.0624,,,0.0646,0.0457,,,0.0603,0.0747,0.0627,0.0475,0.0588,0.0616,0.0626,0.0499,0.0555,,,,0.0529
MGESLFKGPRDYNPISSFICHLTNESDGHTTSLYGIGFGPFIITNKHLFRRNNGTLVVQSLHGVFKVKDTTTLQQHLVDGRDMIIIRMPKDFPPFPQKLKFREPQREERICLVTTNFQTKSMSSMVSDTSCTFPSGDGIFWKHWIQTKDGQCGSPLVSTRDGFIVGIHSASNFTNTNNYFTSVPKNFMELLTNQEAQQWVSGWRLNADSVLWGGHKVFMVKPEEPFQPVKEATQL [S18F],0.0817,0.106,0.0443,0.0543,0.0712,0.0517,0.0541,0.0462,0.0977,,0.0528,0.0561,0.0895,0.0653,0.0562,,,0.0626,,0.0709
MGESLFKGPRDYNPISSVICHLTNESDGHTTSLYGIGFGPFIITNKHLFRRNNGTLVVQSLHGVFKVKDTTTLQQHLVDGRDMIIIRMPKDFPPFPQKLKFREPQREERICLVTTNFQTKSMSSMVSDTSCTFPSGDGIFWKHWIQTKDGQCGSPLVSTRDGFIVGIHSASNFTNTNNYFTSVPKNFMELLTNQEAQQWVSGWRLNADSVLWGGHKVFMVKPEEPFQPVKEATQL [S18V],0.107,0.103,,,0.0952,0.0605,0.0626,0.0599,0.0862,0.0767,0.0645,0.0558,0.1,0.0697,0.0685,0.0818,0.0768,,0.0752,0.0613
MGESLFKGPRDYNPISSSICHLTNESDGHTTSLYGIGFGPFIITNKHLFRRNNGTLVVQSLHGVFKVKDTTTLQQHLVDGRDMIIIRMPKDFPPFPQKLKFREPQREYRICLVTTNFQTKSMSSMVSDTSCTFPSGDGIFWKHWIQTKDGQCGSPLVSTRDGFIVGIHSASNFTNTNNYFTSVPKNFMELLTNQEAQQWVSGWRLNADSVLWGGHKVFMVKPEEPFQPVKEATQL [E108Y],0.0639,0.106,,,0.0485,0.0616,,0.0553,0.0562,0.0482,,0.0619,0.0616,,0.0468,0.0625,0.0559,0.0496,,0.0646
MGESLFKGPRDYNPISSSICHLTNESDGHTTSLYGIGFGPFIITNKHLFRRNNGTLVVQSLHGVFKVKDTTTLGQHLVDGRDMIIIRMPKDFPPFPQKLKFREPQREERICLVTTNFQTKSMSSMVSDTSCTFPSGDGIFWKHWIQTKDGQCGSPLVSTRDGFIVGIHSASNFTNTNNYFTSVPKNFMELLTNQEAQQWVSGWRLNADSVLWGGHKVFMVKPEEPFQPVKEATQL [Q74G],0.0914,0.116,,0.0905,0.167,0.106,0.07,,0.0933,0.0467,,0.0575,0.0993,0.073,0.0549,0.0653,,,0.0822,
MGESLFKGPRDYNPISSSICHLTNESDGHTTSLYGIGFGPFIITNKRLFRRNNGTLVVQSLHGVFKVKDTTTLQQHLVDGRDMIIIRMPKDFPPFPQKLKFREPQREERICLVTTNFQTKSMSSMVSDTSCTFPSGDGIFWKHWIQTKDGQCGSPLVSTRDGFIVGIHSASNFTNTNNYFTSVPKNFMELLTNQEAQQWVSGWRLNADSVLWGGHKVFMVKPEEPFQPVKEATQL [H47R],0.0639,0.0588,,0.059,,0.0601,,0.0622,0.0564,0.0547,,0.0565,0.0578,0.0693,0.0585,,0.0371,,0.0573,0.0622
MGESLFKGPRDYNPISSSICHLTNESDGHTTSLYGIGFGPFIITNKHLFRRNNGTLVVQSLHGVFKVKDTTTLQQHLVDGRDMIIIRMPKDFPPFPQQLKFREPQREERICLVTTNFQTKSMSSMVSDTSCTFPSGDGIFWKHWIQTKDGQCGSPLVSTRDGFIVGIHSASNFTNTNNYFTSVPKNFMELLTNQEAQQWVSGWRLNADSVLWGGHKVFMVKPEEPFQPVKEATQL [K98Q],0.101,,,,0.147,0.0592,0.0851,,,0.0879,0.0529,0.0214,0.114,,0.0882,0.0932,0.0763,,0.0768,0.0749

# Source: the supplement of paper PMC12217912
